Where “and” joins values, the source holds several entries; their conditions need not be identical. Identical values can stand only once. In all, about 410,000 compounds went through this assay and about 530 (0.13%) were called active. This list was built around the results that the source calls inconclusive (neither active nor inactive); the mix of calls is not that of the screen. Calls follow the shape of the dose curve; as a rule, active = well fitted inhibition curve with a large enough effect; inconclusive = small, poorly fitted or top-dose-only effect, or another doubt; inactive = no such curve, though single readings can be large or run the other way. Where the call is inconclusive, the potency comes from a doubtful curve fit.
Assay: qHTS of GLP-1 Receptor Inverse Agonists: Cytotox Screen
Conditions: HEK293 cAMP-luciferase reporter cells, luminescence, 24 h; activity change, negative = inhibition: at 38.3 µM (top of the series) unless noted
In short: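 1536-well qHTS counterscreen of the MLSMR; 200 cells/uL, 12 h pre-incubation, 23 nL cpd, 24 h at 37 deg C 5% CO2, luciferase detection reagent, 12 min RT, luminescence. Inhibition = undesired.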
For `Cc1cccc(N2CCN(C(=O)C3CCN(c4ncnc5c4nc4n5CCCCC4)CC3)CC2C)c1` (stereo not drawn), the Potency was inconclusive: 22.4 µM [inhibitor, single point] and inconclusive: 7.08 µM [inhibitor, partial curve, poor fit].
With `CCN(CC)C(=S)SCC(=O)c1ccc(F)cc1` the Potency was inconclusive: 8.91 µM [inhibitor, partial curve].
In the case of `CCOC(=O)N1CCN(C(=O)c2ccc(Cn3c(=S)[nH]c4ccc(Br)cc4c3=O)cc2)CC1`, the Potency is reported as “inactive”.
With `CC(C)(C)NCc1ccccc1OCc1cccs1` the Potency was inconclusive: 4.47 µM [inhibitor, partial curve, poor fit].
For `NC(=O)[C@H]1CC2(CC(c3cccc(NC(=O)COc4ccc(Cl)cc4)c3)=NO2)CN1C(=O)CC(c1ccccc1)c1ccccc1` (stereo partly drawn), the Potency was “inactive”.
In the case of `COc1ccc(OC(C)C(=O)NC2CCCCCCC2)cc1` (stereo not drawn), the Potency is reported as “inactive”.
With `CSc1ccc(CCNC(=O)c2ccc3c(Cl)c4c(nc3c2)CCCC4)cc1` the Potency was “inactive”.
For `CC(C)[C@H](NC(=O)N1CCn2c1nc1ccccc12)C(=O)N[C@H](Cc1ccccc1)C(=O)O`, the Potency was “inactive”.
In the case of `C(=N\Nc1nc2ccccc2[nH]1)/c1c[nH]c2ccccc12`, the Potency is reported as inconclusive: 28.2 µM [inhibitor, single point].
With `COC(=O)Cc1cc(=O)n2[nH]c(C)c(-c3ccccc3)c2n1` the Potency was “inactive”.
For `N#CCC(=O)N/N=C\c1cccc(OC/C=C/c2ccccc2)c1`, the Potency was “inactive”.
With `CCS(=O)(=O)c1ncc(Cl)c(C(=O)NCc2ccc(OC)cc2)n1` the Potency was inconclusive: 10 µM [inhibitor, single point].
For `COc1ccc(C(=O)NCCc2c[nH]c3ccccc23)cc1S(=O)(=O)N1CCCCC1C` (stereo not drawn), the Potency was inconclusive: 3.98 µM [inhibitor, partial curve].
For `O=C(NNc1nc2c(F)cccc2s1)C1=COCCO1`, the activity change, negative = inhibition was inactive: -0.126% [at 0.307 µM].
For `Cc1ccc(S(=O)(=O)N2[C@@H](c3ccc(Br)cc3)C(C(=O)O)=CC[C@H]2c2ccc(Cl)cc2)cc1`, the Potency was “inactive”.
In the case of `COc1cccc(-n2c(SCC(=O)Nc3cc(C)on3)nc3ccccc3c2=O)c1`, the Potency is reported as inconclusive: 5.62 µM [inhibitor, full curve].
With `CN(C(=O)c1ccccc1Cl)C1CCCCC1` the Potency was “inactive”.
With `O=C(Nc1cccc(O)c1)c1ccc(S(=O)(=O)N2CCCCCC2)cc1` the Potency was inconclusive: 11.2 µM [inhibitor, single point].
In the case of `Cc1ccc(NC(=S)NC(NC(=O)c2ccccc2C)C(Cl)(Cl)Cl)c(C)c1` (stereo not drawn), the Potency is reported as inconclusive: 28.2 µM [inhibitor, single point].
For `CCOC(=O)c1sc2nc(CC(=O)OC)nc(NCCN(CC)CC)c2c1C`, the Potency was “inactive”.
With `CC[C@]12c3[nH]c4cc(-c5ccco5)ccc4c3CCN1C(=O)[C@@H](CC(=O)NCCC1=CCCCC1)C[C@@H]2C(=O)N1CCN(C(=O)c2ccco2)CC1` the Potency was “inactive”.
With `COc1nc(OC)nc(N2CCC(C(=O)NCc3ccco3)CC2)n1` the Potency was “inactive”.
In the case of `Cc1ccsc1-c1n[nH]c(=S)n1C1CCCCC1`, the Potency is reported as inconclusive: 28.2 µM [inhibitor, single point].
With `COc1ccc(N=N/C(=C\O)C(=O)c2cccs2)cc1` the Potency was “inactive”.
For `N#CC1=C(N)NC(SCc2ccc(F)cc2)=C(C#N)C12CCCCC2`, the Potency was inconclusive: 11.2 µM [inhibitor, partial curve, poor fit].
With `N=c1c2c(ncn1CCCO)Oc1ccc3ccccc3c1C2c1ccccc1` (stereo not drawn) the Potency was inconclusive: 11.2 µM [inhibitor, partial curve, poor fit].
With `Cc1ccc(CCC(=O)Nc2ncc(Cc3cc(Cl)ccc3Cl)s2)o1` the Potency was inconclusive: 1 µM [inhibitor, full curve, poor fit].
For `COc1cc(OC)c2ccc(=O)oc2c1C(CCN1CCCC(C)C1)c1ccc(N(C)C)cc1` (stereo not drawn), the Potency was inconclusive: 3.98 µM [inhibitor, partial curve].
With `Cc1ccc(S(=O)(=O)N2CCOCC2)cc1C(=O)NCc1cccnc1` the Potency was inconclusive: 0.562 µM [inhibitor, full curve, poor fit].
In the case of `Cc1ccc(CNC(=O)CCCC(=O)Nc2cc(C)on2)cc1`, the Potency is reported as inconclusive: 28.2 µM [inhibitor, single point].
In the case of `COc1ccc(C2CC(c3ccccc3)=NN2C(=O)c2ccc(Cl)c([N+](=O)[O-])c2)cc1` (stereo not drawn), the Potency is reported as inconclusive: 11.2 µM [inhibitor, single point].
In the case of `Fc1ccc(-n2nnc(-c3ccccc3)n2)cc1`, the Potency is reported as “inactive”.
In the case of `C=CCOc1c(Br)cc(CNc2ccc(NC(=O)C(C)C)c(OC)c2)cc1OC`, the Potency is reported as inconclusive: 31.6 µM [inhibitor, single point].
For `O=C(Cc1ccccc1)NC(=S)Nc1ccc(N2CCCCC2)cc1`, the Potency was inconclusive: 22.4 µM [inhibitor, partial curve, poor fit].
With `CC(=O)c1cccc(NC(=O)CN(c2cc(C)cc(C)c2)S(=O)(=O)c2c(C)noc2C)c1` the Potency was inconclusive: 11.2 µM [inhibitor, partial curve, poor fit].
For `C/C(=C\C(=O)c1ccc(Br)cc1)NNC(=O)c1ccccc1`, the Potency was inconclusive: 20 µM [inhibitor, single point].
In the case of `Cc1ccc(C(NC(=O)c2ccccc2)C(Cl)(Cl)Cl)cc1` (stereo not drawn), the Potency is reported as inconclusive: 12.6 µM [inhibitor, single point].
In the case of `COc1ccc(NC(=O)Cc2coc3ccc4ccccc4c23)cc1S(=O)(=O)N1CCOCC1`, the Potency is reported as inconclusive: 10 µM [inhibitor, partial curve, poor fit].
In the case of `O=C(NCc1nc2ccccc2[nH]1)C1=C[C@H](c2coc3ccccc3c2=O)C[C@H](OCCCCO)O1`, the Potency is reported as inconclusive: 5.62 µM [inhibitor, full curve, poor fit].
For `Cn1c(O)c(N=NC(=S)Nc2ccccc2F)c2cc(S(=O)(=O)N3CCOCC3)ccc21`, the Potency was inconclusive: 1.41 µM [inhibitor, full curve].
In the case of `CCn1c(CSCc2c(Cl)cccc2Cl)n[nH]c1=S`, the Potency is reported as inconclusive: 28.2 µM [inhibitor, single point].
In the case of `CCOC(=O)[C@]12Cc3c(cc(OC)c(OC)c3OC)[C@H]1N(Cc1ccccc1)C(=O)c1cc(OC)ccc12`, the Potency is reported as inconclusive: 10 µM [inhibitor, partial curve].
With `O=C(O)C1C2CCC(O2)C1C(=O)Nc1cccc(Cl)c1` (stereo not drawn) the Potency was “inactive”.
In the case of `CCCC(=O)NC(=S)Nc1ccc(S(=O)(=O)Nc2ccc(OCC)cc2)cc1`, the Potency is reported as inconclusive: 28.2 µM [inhibitor, single point].
In the case of `CCOC(=O)Cc1ccc(NC(=O)N(Cc2ccc(CC)cc2)Cc2cn[nH]c2-c2ccc(OC)cc2)cc1`, the Potency is reported as inconclusive: 7.94 µM [inhibitor, single point].
In the case of `O=C1OC[C@@H]2CCCN2C(=O)[C@@H](CC(=O)N(CCO)Cc2ccccc2)C/C=C\C[C@H]1Cc1ccc(F)cc1`, the Potency is reported as inconclusive: 28.2 µM [inhibitor, single point].
For `CCc1ccccc1-n1nnc(-c2nsc(NC(=O)c3ccc(C)c(C)c3)n2)c1C`, the Potency was “inactive”.
With `COc1ccc(CNc2ncccc2[N+](=O)[O-])cc1` the Potency was “inactive”.
With `O=[N+]([O-])c1ccc(N2CCOCC2)nc1` the Potency was inconclusive: 28.2 µM [inhibitor, single point].
For `CCCCNC(=S)N/N=C/c1ccc(C#N)cc1`, the Potency was inconclusive: 10 µM [inhibitor, single point].
With `Cc1cccc(Cn2cc(/C=C/[N+](=O)[O-])c3ccccc32)c1` the Potency was inconclusive: 12.6 µM [inhibitor, single point].
With `Cc1ccc(/C=N/N2C(=S)SC(C)(C)C2N(O)C(=O)Nc2ccc([N+](=O)[O-])cc2)cc1` (stereo not drawn) the Potency was inconclusive: 20 µM [inhibitor, single point].
For `O=C(CCCN1C(=O)/C(=C/c2cccc(Br)c2)SC1=S)Nc1cccnc1`, the Potency was “inactive”.
For `O=C(Cn1nnc(-c2ccccc2)n1)N1CCCCC1`, the Potency was “inactive”.
For `O=C(Nc1cccc(S(=O)(=O)NC2=NCCC2)c1)c1ccccc1`, the Potency was “inactive”.
In the case of `Cc1cn2c(=O)cc(COc3cccc(NC(=O)c4ccc(C(C)(C)C)cc4)c3)nc2s1`, the Potency is reported as “inactive”.
With `C=CCc1ccccc1OCCSc1nc(-c2cccs2)nc2cc(=O)[nH]n12` the Potency was “inactive”.
In the case of `CCc1c(C)sc2c1CCN(Cc1ccccc1)C2c1ccccc1` (stereo not drawn), the Potency is reported as “inactive”.
In the case of `CCc1nc2c(OCCC3CCCCC3)cccn2c1N(C)C(=O)c1cccs1`, the Potency is reported as inconclusive: 20 µM [inhibitor, single point].
For `CC(=NNc1ccc2ccccc2n1)c1ccccc1O`, the Potency was inconclusive: 2.51 µM [inhibitor, full curve].
With `CC(C)(C)OC(=O)N/N=C/c1ccc(Br)cc1` the Potency was “inactive”.
With `COCCCNC1=C(Cl)C(=O)c2ccccc2C1=O` the Potency was inconclusive: 12.6 µM [inhibitor, single point].
In the case of `O=C(CSc1oc(-c2ccccc2)nc1S(=O)(=O)c1ccc(Br)cc1)c1ccccc1`, the Potency is reported as “inactive”.
With `Cc1ccc(NC(=O)Cn2c(O)c(N=NC(=O)c3cc4ccccc4cc3O)c3ccccc32)cc1` the Potency was inconclusive: 2.51 µM [inhibitor, partial curve, poor fit].
For `Cc1cc(C)cc(N=Cc2ccc([N+](=O)[O-])s2)c1`, the Potency was inconclusive: 28.2 µM [inhibitor, single point].
With `O=C(Nc1ccc(Br)cc1)c1ccc(F)c(S(=O)(=O)NC2CCCCCC2)c1` the Potency was inconclusive: 31.6 µM [inhibitor, single point].
For `CC1(C)Cc2c(ccc3ccccc23)/C(=C/C(=O)N2CCCCC2)N1`, the Potency was inconclusive: 20 µM [inhibitor, single point].
In the case of `O=c1[nH]n2c(=O)c3c([nH]c2c1N=Nc1cccc(Cl)c1)CCC3`, the Potency is reported as inconclusive: 28.2 µM [inhibitor, single point].

From PubChem BioAssay AID624418 (National Center for Advancing Translational Sciences (NCATS), 2012)
% is scaled to controls: 0 for no effect and ±100 for the full control effect; potency is read from the fitted curve at half-maximal effect.
